Laboratory results taken from the supplement of paper PMC3334620.
The full ranking holds about 33,000 sequences; the median of “E-score (-0.5 to 0.5)” is about -0.043, and the highest 2% start at about 0.37. The list shows a part of the results.

What follows are sequences tested against T1, Upc2 (UniProt Q12151) (assay: PBM E-score (8-mer binding enrichment) (E-score (-0.5 to 0.5)); higher = stronger / more preferred TF binding; most listed sequences are background and not binding sites). Conditions: protein concentration: 200 nM; construct: GST-full length.
T1 sequence: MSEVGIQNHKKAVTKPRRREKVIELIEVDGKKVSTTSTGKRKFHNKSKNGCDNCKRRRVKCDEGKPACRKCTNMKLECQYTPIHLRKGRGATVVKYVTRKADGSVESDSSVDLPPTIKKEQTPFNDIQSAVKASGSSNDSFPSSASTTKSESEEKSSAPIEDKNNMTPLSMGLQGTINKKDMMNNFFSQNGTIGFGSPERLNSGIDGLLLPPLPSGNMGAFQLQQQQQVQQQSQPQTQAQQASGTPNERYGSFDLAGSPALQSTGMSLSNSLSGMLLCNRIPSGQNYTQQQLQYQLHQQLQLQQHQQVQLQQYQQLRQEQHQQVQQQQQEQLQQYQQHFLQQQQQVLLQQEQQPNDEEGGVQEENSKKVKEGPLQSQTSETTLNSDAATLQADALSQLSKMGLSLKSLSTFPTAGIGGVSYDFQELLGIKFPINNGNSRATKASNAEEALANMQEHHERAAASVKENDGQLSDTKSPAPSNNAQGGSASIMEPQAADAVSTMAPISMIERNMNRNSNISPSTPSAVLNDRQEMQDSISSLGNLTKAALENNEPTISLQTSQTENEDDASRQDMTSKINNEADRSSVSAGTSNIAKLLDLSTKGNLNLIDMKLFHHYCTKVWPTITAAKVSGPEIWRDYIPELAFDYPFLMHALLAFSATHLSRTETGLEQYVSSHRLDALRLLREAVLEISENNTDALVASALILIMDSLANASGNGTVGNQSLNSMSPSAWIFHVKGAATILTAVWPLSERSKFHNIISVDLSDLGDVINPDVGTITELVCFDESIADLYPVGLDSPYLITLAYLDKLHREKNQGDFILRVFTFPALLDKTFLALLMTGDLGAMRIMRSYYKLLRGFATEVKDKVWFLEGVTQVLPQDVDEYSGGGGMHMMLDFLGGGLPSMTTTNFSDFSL
Procedure, shortened: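 Yeast transcription factors, full-length or as DNA-binding domains, were expressed with a GST tag using PURExpress in vitro transcription/translation. At about 100-200 nM they were applied to universal all-10-mer Agilent arrays, double-stranded by primer extension on fresh or once-stripped slides. Fluorescent anti-GST detected bound protein, and masliner normalised the scans. E-scores for ungapped eight-base words, pooled with reverse complements, came from the Universal PBM Analysis Suite.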

Sequence | PBM E-score
CGCCTATC | -0.0576
ATCGCCAA | -0.189
ACCATGCG | -0.0246
GGGTCGCA | 0.192
AGAGAATG | 0.0339
AATAAAGT | -0.132
TCTATCAA | -0.242
GCTATGCC | -0.282
CCCTGCTA | -0.187
AGTCATGG | -0.232
ACTACCAG | -0.0238
CGTGTGGC | -0.132
CTCACACC | -0.101
ACGATAAG | 0.225
AATTCTAC | -0.0273
AAAAAGAG | -0.131
CGGGACGA | -0.15
ACTTAAGC | 0.0705
CCAGGGCC | -0.25
GGAATGGA | -0.231
AGACCGAG | -0.0307
GCGAATAA | 0.088
AAGTCCAG | -0.142
CTTCTGAA | -0.0964
ACATGGCG | -0.138

Sequence | PBM E-score
AAGTTAAA | -0.0841
ATAGGTAG | -0.0378
CCGCGACG | 0.0123
GCTTGCAA | -0.0609
TAATCTCA | -0.058
ACGGGCTA | 0.0889
CACTCGAC | -0.0887
GGGGTATA | -0.102
CGGCATTC | -0.0564
GGACAAAA | -0.0784
ATGCACCC | -0.0668
AGCCCACA | -0.12
ACATGGAC | -0.13
TCATTTCA | -0.066
CAAATGTC | -0.143
CTGAGAAC | 0.0245
ATTGGCGC | -0.0236
CTGGGAAG | -0.0394
AAAGGGCC | -0.285
ACACGCCA | 0.0338
ACTCCCGC | -0.0959
ATGTAAAC | 0.27
CGGAGCAA | -0.132
CGGATCTA | -0.0176
CTCTTACA | 0.0232

Sequence | PBM E-score
ACAGATAT | 0.0429
AAACTAAG | 0.0307
ACGTTTCG | 0.192
CATCAAAA | 0.0504
GAATAGGA | 0.00265
ATCATCAT | 0.0157
GTTCGCCA | 0.0268
GCCCGCAA | -0.00852
AAAGGACT | -0.23
TACGCCTA | 0.0355
AGAGTTTG | -0.13
GGGTGTCA | -0.0944
CCCCGACC | -0.084
CGGCAACA | 0.0297
AATAATGC | 0.151
CGTCACCA | 0.0655
AAACCTGC | -0.0886
TACGAAAA | 0.411
ACTAAAAC | 0.00593
AGCTGTCC | -0.233
TAGAGCGA | 0.0675
GGATGGTA | 0.0248
GGACATTA | 0.01
ACGTAACC | 0.157
CAATGATG | -0.162

Sequence | PBM E-score
CCCGGTGA | -0.17
AGTCATCA | -0.266
ATCGACTC | -0.00472
CGTCGCAG | 0.02
AGCCCAAC | -0.113
ATCTTGAG | -0.261
GGGACGAA | -0.198
CAGGGCGA | 0.0606
GGAGATAC | -0.0204
CGTGACAA | -0.0597
CTTCCCGA | -0.007
AACGCATT | 0.144
ACTGACCG | -0.00173
CATCTTGA | -0.234
TAAAAGTA | -0.0192
AATCAAGA | -0.0577
ATGGCCCA | 0
CCCCTCCC | -0.237
CGTTACGA | 0.417
GGTTCTGA | 0.144
GCATGCGA | 0.182
GCCGTGAC | -0.162
TGATAAAA | 0.0875
GATTTCAA | -0.133
ATAGGACG | -0.208

Sequence | PBM E-score
AGCCACCT | -0.137
GGCTACCA | -0.0831
ATGATTAG | -0.0423
CAGATCCA | -0.177
CAGGTGAA | -0.0656
CCAGCGAA | -0.136
CCGTACTC | 0.108
GGTCACCA | -0.196
CTATCGAG | -0.0943
CGTGGGGC | -0.141
AAGCTAAT | 0.0748
AGTTATCG | 0.196
CTGTGTAC | 0.269
ACCAACAT | 0.102
GCCGCCTA | -0.276
GTCAACAA | -0.182
AGCCAGCC | -0.147
ACTGTCTG | -0.278
AAATAGTA | -0.0147
CCAAAACC | -0.0136
AATGCTGT | -0.0791
AGGCTAAT | -0.0165
CACGCTTA | 0.0593
CATGTACC | -0.262
GCCTGCCA | -0.317

Sequence | PBM E-score
AGTGTGCC | -0.217
CGGGGGTA | -0.14
CCCGAAAA | 0.00574
GCCGACAC | -0.116
GAGGATTA | -0.0558
GAACTTGC | -0.108
CTTCGATA | 0.116
ACCCGGAG | 0.0518
GCAGCACA | -0.0788
GGCAGTAA | -0.0007
CATAAGAC | 0.0365
ATGGGTAG | 0.00021
TGACCGAA | 0.127
ACTGTAAA | 0.103
AAACCAAA | 0.118
GAGAGCAA | -0.166
AGCTTTAA | 0.0562
GAATCGTA | 0.387
AGATTACA | -0.017
GCTAAACC | 0.03
CCTCAGCC | -0.267
GGTCAACC | -0.0842
GAGCCGCC | -0.0701
CTGTCCCA | -0.016
CTCGTCAA | 0.0036

Sequence | PBM E-score
AGTTATAC | 0.333
ACCGAGAC | 0.152
ACTAAGAC | -0.0582
GTTCGCGA | 0.313
CGTCGAAA | 0.0795
GCTTCAAC | -0.0299
CCCTCCGG | -0.155
GGCCGAAC | -0.019
GCATGTCA | -0.0782
CAACCGTG | 0.0422
CCCACATC | -0.0941
ACGAGTAC | 0.419
AGAGGAGG | -0.155
ATACGCCA | 0.324
CACGCCCA | -0.24
CGGCGGGA | -0.0655
AAGGAATA | 0.0137
CCAAAGAG | -0.192
AAATAACC | -0.205
AATTTTGG | -0.107
GAGGTGAA | -0.0208
AGTCGTCA | -0.167
GGCAAAAA | -0.0254
AAAACGCG | 0.193
ACATCTCT | -0.0876

Sequence | PBM E-score
AACATTTG | -0.162
CTAGCTTC | -0.105
CGCCAGTA | 0.0729
GATCGTAC | 0.442
AAGGTCCG | -0.0279
GATTCGCC | -0.077
CAGTTTCC | -0.137
TGGCCAAA | -0.0519
ACCACCTC | -0.111
GGAGGGTA | -0.131
CCCTACAA | -0.101
CTGTAAAC | 0.192
TAGAGGGA | -0.246
CGTATACC | 0.472
CTTCCCTC | -0.113
ACCTCCCT | -0.0856
ACGCCACA | -0.0305
CGGCATCC | -0.0064
AAGCAGGT | -0.185
ACCGGAGC | -0.234
CGAATACG | 0.356
CAACCTCG | 0.196
GCCTGACA | -0.273
CTATCTAC | -0.0129
TACCAACA | -0.0541

Sequence | PBM E-score
TCTGTGCA | -0.191
TGGAGAAA | -0.186
CCAATCTA | -0.0225
AATCCCGC | -0.0423
AGTAAGTC | -0.0547
ACCCGGAT | -0.0814
ACACGGCG | -0.0227
CGGACCAG | 0.0553
CAAAGCGC | -0.0826
ATGAATGG | -0.164
CGCAATTC | 0.0807
ACGCGTAA | 0.237
AGGCTCAA | -0.335
AACCTCAT | -0.154
GCAACAGA | -0.121
ATCCCGCC | -0.0625
ACCACAGG | -0.203
GGCTATAA | 0.0327
AGATAGAT | -0.184
